Measurements taken from PubChem BioAssay AID1460 (National Center for Advancing Translational Sciences (NCATS), 2008).
“And” between values parts separate entries of the source, which are not always exact repeats. Equal entries are not always repeated. In all, about 270,000 compounds went through this assay and about 5,800 (2.1%) were called active. The inconclusive results got no clear call from the source; some entries with a clear call stand among them for comparison. Calls come from the whole dose curve; as a rule, active = well fitted inhibition curve with a large enough effect; inconclusive = small, poorly fitted or top-dose-only effect; inactive = flat fitted curve, though single readings scatter. Potencies beside an inconclusive call are fits to weak or partial responses and may not hold up.

These compounds were tested against Microtubule-associated protein tau (Homo sapiens) (UniProt P10636) (assay: qHTS for Inhibitors of Tau Fibril Formation, Thioflavin T Binding). Conditions: recombinant tau K18 P301L (four-repeat tau fragment), heparin-induced fibrillization, ThT fluorescence; series mostly up to 57.4 µM.
Method in brief: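 Aggregation was driven by heparin (20 uM final) acting on recombinant tau […] bearing P301L in 100 mM sodium acetate pH 7; fibrils were detected with Thioflavin T.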
Note: nearly all actives have a fitted effect of over 55% in size.
Potency is the fitted concentration of half-maximal effect; tags give direction and shape of the fitted curve.

Chain of UniProt P10636 (P10636 whole entry, looked up, the tested form may be a part): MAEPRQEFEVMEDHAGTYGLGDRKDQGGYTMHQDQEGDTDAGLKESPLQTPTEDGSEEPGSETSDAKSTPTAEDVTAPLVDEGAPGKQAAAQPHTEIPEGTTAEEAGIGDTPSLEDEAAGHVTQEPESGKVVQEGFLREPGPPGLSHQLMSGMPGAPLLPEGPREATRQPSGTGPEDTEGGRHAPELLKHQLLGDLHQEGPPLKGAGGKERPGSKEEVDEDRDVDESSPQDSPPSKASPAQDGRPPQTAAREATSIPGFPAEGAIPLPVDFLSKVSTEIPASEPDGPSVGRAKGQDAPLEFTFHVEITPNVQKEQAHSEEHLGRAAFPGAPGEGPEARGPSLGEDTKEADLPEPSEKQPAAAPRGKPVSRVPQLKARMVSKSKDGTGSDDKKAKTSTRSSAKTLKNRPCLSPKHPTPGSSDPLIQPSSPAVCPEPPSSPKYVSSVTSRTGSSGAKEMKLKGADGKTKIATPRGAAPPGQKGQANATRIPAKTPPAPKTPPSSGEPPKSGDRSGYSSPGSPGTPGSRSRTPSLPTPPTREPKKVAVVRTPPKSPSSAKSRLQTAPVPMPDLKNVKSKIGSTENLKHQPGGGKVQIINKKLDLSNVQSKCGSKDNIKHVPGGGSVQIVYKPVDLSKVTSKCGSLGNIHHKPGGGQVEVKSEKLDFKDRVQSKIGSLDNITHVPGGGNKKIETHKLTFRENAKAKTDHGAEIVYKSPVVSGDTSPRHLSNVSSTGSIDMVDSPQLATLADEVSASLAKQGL

Row | Structure (SMILES) | Potency
1 | Cc1ccc(S(=O)(=O)Nc2ccc(-c3cn4ccc(C)cc4n3)cc2)cc1 | inconclusive: 20 µM [inhibitor, single point]
2 | Cc1cc(C)c(N2CCN(S(=O)(=O)N3CCCCCC3)CC2)c(C)c1 | inconclusive: 17.8 µM [inhibitor, partial curve]
3 | CC(=Nc1ccc(Br)cc1)c1sc2ccccc2c1O | inconclusive: 1.12 µM [inhibitor, full curve, poor fit]
4 | CCn1c(-c2csc(-c3ccc(Cl)cc3)n2)n[nH]c1=S | inconclusive: 1.78 µM [inhibitor, full curve, poor fit]
5 | Cc1ccccc1/C=C1\SC(=S)N(/N=C/c2cc([N+](=O)[O-])ccc2O)C1=O | active: 25.1 µM
6 | COc1ccc(OC)c(Nc2nc(-c3ccccc3O)nc3ccccc23)c1 | inactive
7 | CC(NC(=O)COc1ccccc1-c1ccccc1)c1ccccc1 (centres undefined) | inconclusive: 25.1 µM [inhibitor, single point]
8 | COc1ccc2nc3sc(C(=O)Nc4ccccc4F)cc3cc2c1 | inconclusive: 0.708 µM [inhibitor, full curve]
9 | Cc1cccc(C2=NN(c3ccccc3)[C@H](CO)[C@H]2c2ccc(F)cc2)c1 | inconclusive: 50.1 µM [inhibitor, single point]
10 | Nc1ccc(S(=O)(=O)c2cccc(N)c2)cc1 | inactive
11 | COc1ccc(-c2cc3ccccc3[nH]2)cc1 | inconclusive: 2.24 µM [inhibitor, full curve]
12 | CNc1ccccc1C(C)(C)c1cc(-c2ccc(F)cc2)no1 | inconclusive: 14.1 µM [inhibitor, partial curve]
13 | CCCCC/C=C\C/C=C\CCCCCCCCCC(=O)NC(C)C(=O)O (centres undefined) | inactive
14 | FC(F)(F)c1cccnc1N1CCN(c2ncnc3nc[nH]c23)CC1 | inconclusive: 14.1 µM [inhibitor, partial curve]
15 | Nc1ccc(-c2cnc(-c3ccc(N)cc3)nc2)cc1 | inconclusive: 12.6 µM [inhibitor, partial curve]
16 | COC(=O)c1ccc(C(=O)OC)c(NC(=O)CN2CCN(c3ccccc3OC)CC2)c1 | inconclusive: 12.6 µM [inhibitor, partial curve]
17 | CCOC(=O)c1nnn(-c2ccc([N+](=O)[O-])cc2[N+](=O)[O-])c1C | inactive
18 | COC(=O)Cn1c(=O)c2c(nc3n2CCN3c2cccc(C)c2)n(C)c1=O | inconclusive: 12.6 µM [inhibitor, single point]
19 | Cc1ccc(-n2c(CCC(=O)O)ccc2-c2cccs2)cc1C | inconclusive: 15.8 µM [inhibitor, partial curve] and inconclusive: 1.26 µM [inhibitor, full curve]
20 | COC(=O)c1ccsc1NC(=O)CSc1nnnn1-c1ccccc1SC | inactive
21 | CCC1CCCCN1Cc1nc(Cc2ccccc2Cl)no1 (centres undefined) | inactive
22 | O=C(CSc1nc2c(sc3ccccc32)c(=O)n1-c1ccccc1)NCc1ccco1 | inconclusive: 39.8 µM [inhibitor, single point]
23 | O=C(CSc1ncnc2scc(-c3ccccc3)c12)N1CCN(c2ccccc2F)CC1 | inconclusive: 1.26 µM [inhibitor, full curve, poor fit]

Row | Structure (SMILES) | Potency
24 | COc1ccc(OCC(=O)Nc2nnc(S(=O)(=O)N3CCCCCC3)s2)cc1 | inconclusive: 5.01 µM [inhibitor, partial curve]
25 | CCc1c(C)c2ccc3c(c2oc1=O)CN(Cc1ccccc1)CO3 | inactive
26 | O=C(Nc1ccc2c(c1)CCC2)C1CCN(c2c3c(nc4ncnn24)CCC3)CC1 | inconclusive: 35.5 µM [inhibitor, partial curve]
27 | CCOC(=O)N/N=C\C=C\c1ccc2c(c1)OCO2 | inconclusive: 28.2 µM [inhibitor, single point]
28 | Cc1nc2ccc(NC(=O)c3ccc([N+](=O)[O-])cc3)cc2s1 | inconclusive: 1.12 µM [inhibitor, full curve]
29 | O=C(Cc1cccc2ccccc12)Nc1nnc(-c2cccc([N+](=O)[O-])c2)s1 | inactive
30 | CCOC(=O)C1CCN(C(c2ccccc2)c2c(O)cc(C)n(Cc3ccco3)c2=O)CC1 (centres undefined) | inconclusive: 12.6 µM [inhibitor, partial curve]
31 | Cc1cc(N2CCCCC2)n2ncc(-c3ccccc3)c2n1 | inconclusive: 8.91 µM [inhibitor, single point]
32 | Cc1cc(C(=O)N/N=C2\CC(=O)CC(C)(C)C2)c(C)n1-c1ccc(F)cc1 | inconclusive: 25.1 µM [inhibitor, partial curve]
33 | CC1=C(C#N)C(=O)N(C2CCS(=O)(=O)C2)C(=O)/C1=C\c1ccc(C)o1 (centres undefined) | active: 22.4 µM
34 | CCC(CO)[n+]1c(C)cc(/C=C2\Sc3ccccc3N2Cc2ccccc2)cc1C (centres undefined) | inconclusive: 17.8 µM [activator, partial curve]
35 | COc1ccc(-c2nn3c(-c4ccc(OC)cc4)nnc3c3ccccc23)cc1 | inconclusive: 7.94 µM [inhibitor, single point]
36 | COC(=O)/C=C1\OC(c2ccccc2)=CC1=O | active: 25.1 µM
37 | Cc1ccc(-c2nn(-c3ccccc3)cc2C(N)=O)o1 | inactive
38 | N#CC1CC(c2ccccc2)=NN1c1ccccc1[N+](=O)[O-] (centres undefined) | inconclusive: 12.6 µM [inhibitor, partial curve]
39 | COc1cc(C2CC(=O)Nc3c2c(=O)[nH]c2nc4ccccc4n32)ccc1O (centres undefined) | inactive
40 | CCOC(=O)C1=C(C)NC(=O)NC1C (centres undefined) | inactive
41 | CC(CCc1ccccc1)NC(=O)CN1CCc2ccccc2C1 (centres undefined) | inconclusive: 22.4 µM [inhibitor, single point]
42 | O=C(CCC(=O)Nc1ccc(Cl)cc1Cl)N/N=C/c1ccc([N+](=O)[O-])o1 | inconclusive: 15.8 µM [inhibitor, partial curve]
43 | N[C@@H](C(=O)O)c1ccc(P(=O)(O)O)cc1 | inconclusive: 25.1 µM [inhibitor, single point]
44 | O=[N+]([O-])c1ccc(CSc2nc3ccccc3o2)cc1 | inconclusive: 14.1 µM [inhibitor, partial curve]
45 | CCCCn1c(SCC(=O)c2ccc(O)c(O)c2)nc2ccsc2c1=O | inconclusive: 31.6 µM [inhibitor, single point]
46 | C=CCn1c(C)cc(C2=NNC(=NCc3ccccc3)SC2)c1C | inconclusive: 28.2 µM [inhibitor, partial curve]

Row | Structure (SMILES) | Potency
47 | COc1ccccc1-n1c(=S)[nH]c2c(sc(=S)n2-c2ccccc2)c1=O | inconclusive: 20 µM [inhibitor, single point]
48 | Cc1ccc(-c2nc(C)c(CCNC(=O)C(=O)Nc3ccc4c(c3)OCCO4)s2)cc1 | inconclusive: 0.708 µM [inhibitor, full curve]
49 | CCCOc1ccc(C(=O)Nc2cccc(-c3nc4ccccc4[nH]3)c2)cc1 | inconclusive: 12.6 µM [activator, partial curve]
50 | Cc1ccc(N2C(S)=C(C#N)C(=O)NC2c2cccs2)cc1 (centres undefined) | inactive
51 | CC(C)(C)C1CCC(=NNC(=S)NCc2ccccc2)CC1 (centres undefined) | inactive
52 | Cc1ccc(CNC(=O)CCC2CCCN(C(=O)CCC(F)(F)F)C2)o1 (centres undefined) | inconclusive: 17.8 µM [inhibitor, single point]
53 | COc1ccc2[nH]cc(CCNc3nc(-c4ccoc4)nc4ccccc34)c2c1 | inconclusive: 28.2 µM [inhibitor, partial curve]
54 | COc1ccc(OCc2nnc(NC(=O)Nc3ccc(F)cc3)s2)cc1 | inactive
55 | Cc1cccc(Cn2cccc2/C=C2/C(=N)N3C=CSC3=NC2=O)c1 | inconclusive: 3.16 µM [inhibitor, full curve, poor fit]
56 | COc1ccc(OC(=O)c2nc(SCc3ccc(C)cc3)ncc2Cl)cc1 | inconclusive: 12.6 µM [inhibitor, partial curve, poor fit]
57 | CC1CCCN(c2csc3ccc(F)cc3c2=O)C1 (centres undefined) | inconclusive: 25.1 µM [inhibitor, partial curve]
58 | COc1ccc2nc(SCC(C)=O)c(C#N)cc2c1 | active: 4.47 µM
59 | CCc1ccccc1NC(=O)C1=CC(c2ccc(OC)c(OC)c2)=NS(=O)(=O)N1C | inconclusive: 1.58 µM [inhibitor, full curve]
60 | CCC(Cc1ccccc1)NC(=O)c1ccc2nc(N3CCC(C)CC3)sc2c1 (centres undefined) | inactive
61 | CC(=O)N1[C@H](Cc2ccccc2)C=C[C@]1(C)C(=O)NCc1ccc(C)o1 | inactive and inconclusive: 31.6 µM [inhibitor, single point]
62 | Cc1nn(-c2ccccc2)c(Cl)c1/C=C1\SC(=S)NC1=O | inconclusive: 25.1 µM [inhibitor, partial curve]
63 | COc1cccc(-c2oc3ccccc3c(=O)c2O)c1 | inconclusive: 10 µM [inhibitor, partial curve]
64 | FC(F)(F)c1ccccc1-n1ccnc1 | inconclusive: 25.1 µM [inhibitor, partial curve]
65 | COc1ccc(N2C(=O)C(=O)/C(=C(/O)c3ccc(C)cc3)C2c2cccnc2)cc1 (centres undefined) | inconclusive: 10 µM [inhibitor, partial curve]
66 | O=C(O)c1cccc(Cn2c(Cl)c(/C=N/Nc3ccccc3)sc2=O)c1 | active: 17.8 µM
67 | CCOc1cc(C2C(C(=O)OC)=C(C)NC3=C2C(=O)c2ccccc23)ccc1O (centres undefined) | active: 14.1 µM
68 | c1ccc(N2CCN(Cc3nnnn3C3CCCCC3)CC2)cc1 | inactive
69 | Cc1ccc(S(=O)(=O)n2nc(OC(=O)C(C)(C)C)cc2N)cc1 | inconclusive: 17.8 µM [inhibitor, partial curve]
